This note sets out measurements from the RNAGym collection of RNA variant scans (doi:10.1093/nar/gkz1192).

The labels stand for the following.
B1: CPEB3 Ribozyme (parent)
chain: UAACAGGGGGCCACAGCAGAAGCGUUCACGUCGCAGCCCCUGUCAGAUUCUGGUGAAUCUGCGAAUUCUGCUGUAUAUCUC

The source gives no read counts; variants with many changes may rest on few reads.

The variants in the data set derive from B1. Description: self-cleavage, relative activity (ratio to wild type); higher = more cleavage; in vitro, sequencing. A digest of the protocol:
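Libraries of CPEB3 self-cleaving ribozyme mutants came from rounds of error-prone PCR and carried barcodes, which DNA sequencing matched to variants. In vitro transcription used T7 RNA polymerase at 37°C for 5 hours, with a further 15 min in DNase I before EDTA stopped the reaction; the ribozymes cleaved during both steps. The RNA was reverse transcribed with template switching and sequenced on Illumina. Relative activity is the cleaved/total read fraction of a variant divided by that of the unmutated ribozyme, averaged over three batches with at least 5 reads.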
Take U25C U26A U69C G70A U72C: the self-cleavage came out at 0.14. For the variant U25C U31C A47G, the self-cleavage came to 0.26.

Turning to U25C U41C A56G A64G A77U, the self-cleavage worked out at 0.44. U25C U31G A56G A65U A75G: the self-cleavage was 0.09. As to U25C G30U A57U, the self-cleavage was 0.06.

On to U25C G30U A57G, for which the self-cleavage came to 0.13. With U25C G33U U41A C44U U69C, the self-cleavage was 0.16. Take U25C U31G U54C U60A: the self-cleavage came out at 0.38. Regarding U25C U41A U54C U60C, the self-cleavage is 0.1. On to U25C G30A C38U U67C U76C, for which the self-cleavage came out at 0.06. Turning to U25C U26C C40G, the self-cleavage came out at 0.29. Take U25C G36A U49C: the self-cleavage worked out at 0.06. On to U25C G52A U69C, for which the self-cleavage amounted to 0.11. U25C U26C U67C: the self-cleavage turned out to be 0.1. Consider U25C U43C A45G U66C U72A, for which the self-cleavage was 0.25.

In the case of U25C U31C U43C C44U U49C G61A, the self-cleavage amounted to 0.05. As for U25C U26C C37A U41C, the self-cleavage was 0.24.

As to U25C U26C A47U U74A, the self-cleavage stood at 0.23.

Consider U25C U26A A47G U54C C62U A64U A75G, for which the self-cleavage turned out to be 0.04.

With U25C C44A U72A, the self-cleavage was 0.07. To U25C U31C A35U A56U U78C belongs 0.07; to U25C C44U A56G, 0.42; to U25C U41A G52U U67C, 0.05. As for U25C U26C A47U U58A U69A, the self-cleavage came to 0.18. On to U25C U49A A56G A57G, for which the self-cleavage was found to be 0.13. With U25C C40U G46A U80A, the self-cleavage worked out at 0.38. For U25C U41C U51C U66C, the self-cleavage amounted to 0.09. The value for U25C G36A U49C U69A was 0.07; that for U25C U31C A45U U49C U67C U69A U72A was 0.04; that for U25C C38U U43C U51C U60A G63A U72A was 0.02. U25C U31C A35G U54C: the self-cleavage was 0.15.

Take U25C U31C U49A A64G U72C: the self-cleavage amounted to 0.17. Turning to U25C U41C G52U A64G, the self-cleavage turned out to be 0.13. Take U25C U26G C37A A64G A65G U76C: the self-cleavage was found to be 0.01. On to U25C G30A U69C, for which the self-cleavage was found to be 0.11. In the case of U25C G33A A35G U49A U51A, the self-cleavage came to 0.15. As to U25C U26C C44A A64G, the self-cleavage was determined as 0.24. To U25C U43C U48C U80C belongs 0.18. Take U25C U26C U43G C62A U69A A75U U76C: the self-cleavage is 0.07.

Take U25C C62U A65G: the self-cleavage is 0.17. On to U25C U31A A35G A47G A75G U76C, for which the self-cleavage is 0.07.

On to U25C C40U U43C A45U, for which the self-cleavage was 0.16.

With U25C G30A U74G A75G, the self-cleavage turned out to be 0.19. The value for U25C G30A U66C U80A was 0.07.

Regarding U25C U41A A47G A75U, the self-cleavage stood at 0.08.

As for U25C U48C U51A, the self-cleavage turned out to be 0.34. Consider U25C C40G A77U, for which the self-cleavage is 0.24. The value for U25C U48C U51C A64C U80A was 0.15; that for U25C U43C U54A U69C was 0.2; that for U25C U26C A65G C79U was 0.09. U25C G36U A75U U80C: the self-cleavage came to 0.13.

In the case of U25C G36C C39U A45G U58C, the self-cleavage was 0.14.

In the case of U25C U31C U54C U67C, the self-cleavage came to 0.11. Take U25C U49C A57G U58C: the self-cleavage amounted to 0.22. Consider U25C U26A U41A G52A U66C U76C U78C, for which the self-cleavage is 0.06.

For the variant U25C C40U A47G, the self-cleavage stood at 0.21. Take U25C G30A U41C U54C U78C: the self-cleavage was found to be 0.22. The value for U25C U31A U54C A64U was 0. To U25C U31G C50U G52A U76C C79G belongs 0.1; to U25C U26C U60C, 0.19. Turning to U25C C50A A56G, the self-cleavage is 0.21. For U25C U26C A56G A57G U80C, the self-cleavage was determined as 0.09.

On to U25C U26A U31C U67A U72G, for which the self-cleavage turned out to be 0.14. With U25C U31C C39U U78C, the self-cleavage amounted to 0.13.

U25C G42A U54C U60C U72C U74C: the self-cleavage amounted to 0.04. As for U25C U26C A35G U74A, the self-cleavage came to 0.32. Consider U25C C71A U76C, for which the self-cleavage came to 0.07. Consider U25C C59U U60A G73A, for which the self-cleavage came out at 0.22. Consider U25C U43A A56U A77G, for which the self-cleavage worked out at 0.2. To U25C U41C U43C U58C C62U G73A belongs 0.02; to U25C C39U U74C U78C, 0.19; to U25C U31C A57U, 0.07. With U25C C38U U80C, the self-cleavage was found to be 0.34.

Take U25C U48C A56U: the self-cleavage amounted to 0.07. With U25C U31C A64G, the self-cleavage came to 0.26.

In the case of U25C U31A U78G, the self-cleavage was found to be 0.13. To U25C U48C C71A belongs 0.08; to U25C G30U U66C U72C, 0.17; to U25C U26G G73A, 0.35.

In the case of U25C U31C U48A, the self-cleavage turned out to be 0.11. On to U25C G33C C79U, for which the self-cleavage is 0.19. For U25C G52C U54C A56U, the self-cleavage was 0.16. Take U25C U26C C40U U49C: the self-cleavage was found to be 0.12.
